Results taken from paper PMC10668032.
The list shows a part of the results. At the low end of the ranking the order means little.

target: SIX1 homeodomain (reference allele) (UniProt Q15475); experiment: universal protein binding microarray; conditions: Universal all-10-mer PBM (8x60K, AMADID 030236), 300 nM GST-tagged protein, Alexa Fluor 488 anti-GST; buffer, salt, pH and temperature not stated; high values mean tight binding; most listed sequences are background and not binding sites; double strand, one strand shown

Sequence	binding signal [E-score]
CAGTGAAC	0.0285
CTTTCAGC	-0.129
GCTCGCGA	-0.000445
AAATTTAA	-0.285
AAGGGTTA	0.0139
TAAGGATA	0.276
AGCGTGTA	0.14
AGCGGCTG	-0.126
CCTCTGCC	-0.113
GATTCAAA	-0.169
AGCACGGC	-0.127
GTTTTGTA	-0.0274
CTGCACGA	-0.022
TACTTTCA	-0.00346
AGGTTGAG	-0.121
AGCGGGAT	0.289
ATACCGAT	0.353
GCGAGCGC	-0.157
GCTTAGCC	-0.0974
AAATGAGC	-0.018
GGCCTGGA	-0.197
GGCCGCCA	-0.317

Sequence	binding signal [E-score]
AGTCTATG	-0.107
AACTAGCA	-0.0897
TATAAAAA	-0.104
GGGGTTAA	0.049
GCTAGTCC	-0.106
AAAACATT	-0.375
TCGTGGAA	0.124
CGGGCTAC	-0.0855
GAAAGCTC	-0.171
CTGTCGGC	-0.0713
AGAGGACT	-0.0995
TCAAATCA	-0.139
GATGTTTA	-0.0585
CAATTAAG	-0.207
TAGCATGA	-0.00967
TGCCGCCA	-0.177
ATAGCGCA	-0.0371
ATCTGTAA	-0.0377
GACAGAAA	-0.14
TGGTGTAA	0.297
CATATACA	0.263
ACGTATAC	0.285

Sequence	binding signal [E-score]
AGGCGTTG	-0.166
ATGGACCA	-0.0174
ACCGGATG	0.121
GCGCGCAC	-0.215
CTGTGAGA	0.0759
ACATCGGA	-0.0196
AGGTAACT	0.0826
ACACAACT	-0.0839
ATGACTGC	-0.209
CGTCAGTA	0.0666
CCAAATCC	-0.0396
AGTCAGTA	-0.114
GCGTACAA	-0.149
GGCCTTAA	-0.287
CTCTCATC	-0.0725
CCTGACAA	-0.202
AACACAAT	0.0801
CAGTCAAG	-0.208
CGACCCCA	0.11
CCTCCACG	-0.19
CACGAGCC	0.0147
ATGACGAC	-0.122

Sequence	binding signal [E-score]
CTATAGAG	0.0161
CCGGACTA	-0.171
CATGTTCC	-0.325
GCGACCGA	0.151
GTCTAAGA	-0.0128
ACTGGAAG	-0.0803
GAACCATA	0.0996
GAGTTTCC	-0.206
AGGCCACA	-0.317
AACTATCC	0.281
AACGATTG	-0.00666
GCGGATGA	0.171
GGACTCCC	-0.0674
GATCCACA	0.335
CACACCAA	0.0239
ACGGAGCT	-0.203
CACTCTAA	-0.162
CGGGTAGA	0.13
ACTCCCGC	0.0517
TAAGGCAA	-0.177
